Viability of KB3-1 and Nalm-6 cells after 48 h of drug alone (CellTiter-Glo), 11 doses over about 4.5 log units. % of DMSO wells, lower = more cell loss; AC50 from the fitted curve, lower = more potent. No active / inactive call. Nalm-6 was screened in two runs. AC50 is listed only for well-fitted inhibitory curves. KB3-1 is a HeLa-derived carcinoma line, Nalm-6 a B-cell precursor leukaemia line.
Experiments:
KB3-1 = test: viability (% of DMSO control); higher = more viable cells
Procedure: (§1)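 Eleven-dose screen of the NCATS MIPE 3 library on cells without co-treatment; CellTiter-Glo after 48 h, as % of DMSO wells.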

Nalm-6 [1] = test: as above
Procedure: as §1

Nalm-6 [2] = test: log AC50 of viability decrease (48 h) (log10 M); higher = less potent
Procedure: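 Eleven-dose screen of the NCATS MIPE 3 library on cells without co-treatment; CellTiter-Glo after 48 h. AC50 from the curve fit; only inhibitory curves of the better fit classes are listed.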

Structure (SMILES)	viability (KB3-1; 0.00078 µM) [%]	viability (KB3-1; 0.00234 µM) [%]	viability (KB3-1; 0.00702 µM) [%]	viability (KB3-1; 0.0211 µM) [%]	viability (KB3-1; 0.0632 µM) [%]	viability (KB3-1; 0.19 µM) [%]	viability (KB3-1; 0.569 µM) [%]	viability (KB3-1; 1.71 µM) [%]	viability (KB3-1; 5.12 µM) [%]	viability (KB3-1; 15.4 µM) [%]	viability (KB3-1; 46.1 µM) [%]	viability (Nalm-6 [1]; run: 1, 0.00078 µM) [%]	viability (Nalm-6 [1]; run: 1, 0.00234 µM) [%]	viability (Nalm-6 [1]; run: 1, 0.00702 µM) [%]	viability (Nalm-6 [1]; run: 1, 0.0211 µM) [%]	viability (Nalm-6 [1]; run: 1, 0.0632 µM) [%]	viability (Nalm-6 [1]; run: 1, 0.19 µM) [%]	viability (Nalm-6 [1]; run: 1, 0.569 µM) [%]	viability (Nalm-6 [1]; run: 1, 1.71 µM) [%]	viability (Nalm-6 [1]; run: 1, 5.12 µM) [%]	viability (Nalm-6 [1]; run: 1, 15.4 µM) [%]	viability (Nalm-6 [1]; run: 1, 46.1 µM) [%]	viability (Nalm-6 [1]; run: 2, 0.00078 µM) [%]	viability (Nalm-6 [1]; run: 2, 0.00234 µM) [%]	viability (Nalm-6 [1]; run: 2, 0.00702 µM) [%]	viability (Nalm-6 [1]; run: 2, 0.0211 µM) [%]	viability (Nalm-6 [1]; run: 2, 0.0632 µM) [%]	viability (Nalm-6 [1]; run: 2, 0.19 µM) [%]	viability (Nalm-6 [1]; run: 2, 0.569 µM) [%]	viability (Nalm-6 [1]; run: 2, 1.71 µM) [%]	viability (Nalm-6 [1]; run: 2, 5.12 µM) [%]	viability (Nalm-6 [1]; run: 2, 15.4 µM) [%]	viability (Nalm-6 [1]; run: 2, 46.1 µM) [%]	log AC50 of viability decrease (Nalm-6 [2]; run: 1)	log AC50 of viability decrease (Nalm-6 [2]; run: 2)
CN(C)CCN(C)CCc1ccc(Cl)c(Cl)c1 [BD-1047]	107	109	107	106	106	107	108	103	106	99.4	89.8	111	127	117	111	119	117	118	106	95.7	95.3	70.2	113	115	110	105	108	116	112	104	102	96.1	74.5	-4.78	-4.73
CC[C@@H]1C(=O)N(C)c2cnc(Nc3ccc(C(=O)NC4CCN(C)CC4)cc3OC)nc2N1C1CCCC1 [BI-2536]	82.8	33.4	32.1	31.5	32.2	32.9	36.5	45.3	53.6	51.4	3.77	86.6	85	32.9	15.2	15.5	20.5	16.3	14.6	11.7	6.45	5.02	92.2	92.2	46.9	13.5	12	15	11.1	6.72	5.61	4.43	4.71	-8.28	-8.18
C/C(=C\C(=O)Nc1ccccc1C(=O)O)c1ccc2ccccc2c1 [BIBR 1532]	107	107	106	104	105	106	108	105	107	97.4	68.1	117	122	122	125	124	121	126	125	115	43.1	29.7	111	111	105	107	112	110	113	110	104	60.3	6.26	-5.03	-4.78
CC(O)(CS(=O)(=O)c1ccc(F)cc1)C(=O)Nc1ccc(C#N)c(C(F)(F)F)c1 (stereo not drawn) [Bicalutamide]	103	106	105	105	103	108	105	104	97.1	100	86.6	105	105	102	107	114	112	109	110	103	96.4	74.2	103	109	112	113	110	111	109	107	105	112	88.3	-4.73	
CC1=CC=C2\N=C/3N(CCC3(O)C(=O)C2=C1)C4=CC=CC=C4 (stereo not drawn) [Blebbistatin]	101	101	100	98.1	96.7	99.2	103	102	98.7	96.9	87	93.8	101	97.5	108	109	107	103	106	95.1	70.9	62.9	102	101	101	95.9	94.2	104	99.4	104	91	91.1	83.1	-5.03	
CC[C@H](NC1=C2N=C[NH]C2=NC=N1)C/3=N/C4=C(C(=CC=C4)F)C(=O)N3C5=CC=CC=C5 [CAL-101]	105	102	104	106	110	108	108	102	98	97.6	84.8	116	105	118	118	115	114	104	94.8	92.2	78.1	51.4	102	107	105	103	108	101	103	96.7	95.1	89.8	61	-4.83	-4.68
COc1cc2nccc(Oc3ccc(NC(=O)C4(C(=O)Nc5ccc(F)cc5)CC4)cc3)c2cc1OC [Cabozantinib]	98.2	103	101	99.1	101	98.5	105	103	107	106	13.6	98.7	105	108	106	110	109	108	109	87.5	77.7	3.7	109	115	110	116	109	110	107	102	93.8	85.7	3.17	-4.68	-4.68
